Laboratory results as given in paper PMC2651629, “Structure of the Archaeal Pab87 Peptidase Reveals a Novel Self-Compartmentalizing Protease Family” (PLoS ONE, 2009).

Target: T1, Pab87 (Pyrococcus abyssi, UniProt Q9V2D6)
T1 construct: gene pbp; model residues 1-447
T1 sequence (Q9V2D6 1-447): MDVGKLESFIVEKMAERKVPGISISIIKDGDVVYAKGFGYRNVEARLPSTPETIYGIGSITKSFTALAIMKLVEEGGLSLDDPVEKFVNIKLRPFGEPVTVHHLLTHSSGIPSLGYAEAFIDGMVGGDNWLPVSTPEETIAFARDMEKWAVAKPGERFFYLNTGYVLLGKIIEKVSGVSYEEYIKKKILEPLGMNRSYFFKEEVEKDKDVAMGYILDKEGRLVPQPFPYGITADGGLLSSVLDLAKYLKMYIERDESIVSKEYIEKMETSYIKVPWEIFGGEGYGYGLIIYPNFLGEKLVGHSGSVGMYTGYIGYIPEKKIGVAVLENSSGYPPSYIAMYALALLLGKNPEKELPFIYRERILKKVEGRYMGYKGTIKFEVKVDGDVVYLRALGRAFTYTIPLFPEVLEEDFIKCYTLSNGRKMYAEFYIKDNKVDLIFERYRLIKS
Test: p-nitroaniline release at […] nm
Assay type: biochemical
Conditions: 20 mM Tris pH 8.0, 40-90 °C; aminopeptidase; high Km, not determined, only kcat/Km given

Compound: C[C@@H](N)C(=O)Nc1ccc([N+](=O)[O-])cc1 [D-Ala-p-nitroanilide]
- p-nitroaniline release at 405 nm: the enzyme shows a preference for the substrate with a D configuration
